# Data taken from PubChem BioAssay AID1345082 (National Center for Advancing Translational Sciences (NCATS), 2018).
# Screen size: about 94,000 compounds; about 4,000 (4.3%) were called active. The inconclusive results got no clear call from the source; some entries with a clear call stand among them for comparison. Calls follow the shape of the dose curve; as a rule, active = well fitted inhibition curve with a large enough effect; inconclusive = small, poorly fitted or top-dose-only effect; inactive = no such curve, though single readings can be large or run the other way. A potency beside an inconclusive call is a rough fit, not a confirmed value.
# Assay: Cytotoxic Profiling in NIH 3T3 Cell Line of Diverse Libraries Using Quantitative High-Throughput Screening; also: nearly all actives have a fitted effect of over 55% in size
# Details: NIH 3T3 viability, CellTiter-Glo ATP luminescence, 48-72 h; series mostly up to 96.7 µM
# Summary of the method: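 Viability of NIH 3T3 cells after 48 or 72 hr compound treatment at 37 °C was assessed by CellTiter-Glo, with luminescence imaged following a 10 min room-temperature step.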
# Potency is read from the fitted curve at half-maximal effect; tags tell the direction and shape of the fitted curve.
row,Structure (SMILES),Potency
1,Cc1cccc(C(=O)N2[C@@H]3CC[C@H]2CC(NC(=O)c2cnc(C)cn2)C3)c1 (some centres undefined),"inconclusive: 50.1 µM [inhibitor, partial curve, poor fit]"
2,Cc1ncc(-c2nc3cc(S(=O)(=O)NC(C)C)ccc3n2C(C)C)cn1,inactive
3,CC1Oc2ccc(NC(=O)Cc3ccc(F)cc3)cc2CN(Cc2ccccc2F)C1=O (centres undefined),"inconclusive: 44.7 µM [inhibitor, partial curve, poor fit]"
4,O=C(NCc1ccc(F)c(F)c1)C1CCc2nnc(-c3cccc(C(F)(F)F)c3)n21 (centres undefined),inactive
5,COC1C(=O)N(c2cccc(F)c2)C12CCN(C(=O)c1cn(C)cn1)CC2 (centres undefined),inactive
6,CCC[C@H]1C[C@H]1C(=O)NCc1cc2c(nc1OC)CN(C1CCCC1)C2=O,inactive
7,O=C(NC1CC1)c1nc2cccnc2n(CCc2ccccc2)c1=O,inactive
8,COc1ccc(-c2cc3c(=O)n(CCNC(=O)c4ccc5c(c4)OCO5)ccn3n2)cc1,"inconclusive: 79.4 µM [inhibitor, partial curve, poor fit]"
9,O=C(c1n[nH]c2ccccc12)N1CCC(OCCOc2ccccc2)CC1,"inconclusive: 56.2 µM [inhibitor, partial curve, poor fit]"
10,COCCNC(=O)c1cc(-c2ccc(OC)cc2)nc2c1cnn2C,"inconclusive: 70.8 µM [inhibitor, partial curve, poor fit]"
11,COc1cc(Cl)ccc1C(=O)N1CCN(C(=O)c2nnn3c2COC(c2ccccc2)C3)CC1 (centres undefined),"inconclusive: 50.1 µM [inhibitor, partial curve, poor fit]"
12,O=C(c1ccc(OC(F)(F)F)cc1)N1CC2CC(C1)[C@H]1CCCC(=O)N1C2 (some centres undefined),inactive
13,CCNC(=O)c1ccc(CN2C(=O)NC3(CCS(=O)(=O)CC3)C2=O)cc1,inactive
14,O=[S+]([O-])(NC1CCCN(c2ccc3nnc(C4CC4)n3n2)C1)c1ccccc1 (centres undefined),"inconclusive: 50.1 µM [inhibitor, partial curve, poor fit]"
15,Cc1ccc(Nc2ccnc(N3CCC(NC(=O)NC(C)C)CC3)n2)cc1,"inconclusive: 44.7 µM [inhibitor, partial curve, poor fit]"
16,CC(C)C[C@@H]1N[C@H](C(=O)NCCOc2ccccc2)Cc2cn(C)c3cccc1c23,active: 31.6 µM
17,O[C@H]1[C@H](n2cc(-c3cccc(F)c3)nn2)c2ccccc2C12CCNCC2,"inconclusive: 89.1 µM [inhibitor, single point]"
18,COCCn1ncc(N2CCCC(CC(=O)NCc3cccc(Cl)c3)C2)cc1=O (centres undefined),inactive
19,CC1(c2ccccc2)N(Cc2cccnc2)C(=O)OC12CCN(C(=O)Cc1ccc(Cl)cc1)CC2 (centres undefined),"inconclusive: 5.62 µM [inhibitor, full curve, poor fit]"
20,COC(=O)CNC(=O)C1CCN(c2nccc(Nc3ccccc3F)n2)CC1,inactive
21,CC(C(=O)N1Cc2c(C(=O)N3CCCC3)nn(C)c2C1)c1ccccc1 (centres undefined),inactive
22,COC(=O)[C@@H]1Cc2c([nH]c3ccccc23)[C@H]2C[C@H](NCCCn3ccnc3)C[C@@H](c3ccccc3F)N21,active: 5.01 µM

row,Structure (SMILES),Potency
1,CCOc1cccc(CN2CCCC(c3[nH]ncc3-c3cccc(C(F)(F)F)c3)C2)c1O (centres undefined),"inconclusive: 50.1 µM [inhibitor, partial curve, poor fit]"
2,Cc1ccc(-n2c(C3CCN(C(=O)c4cccc(C(F)(F)F)c4)CC3)n[nH]c2=O)cc1,"inconclusive: 3.16 µM [inhibitor, full curve, poor fit]"
3,COc1ccc(NC(=O)c2c(-c3cnn(C)c3NCc3ccccc3)noc2C)cc1,active: 11.2 µM
4,Cc1nc(C2CC(O)C2)cc(N(C)Cc2cnc3ccccc3c2)n1 (centres undefined),"inconclusive: 15.8 µM [inhibitor, full curve, poor fit]"
5,O=C(Nc1ccc(Cl)cc1)NC1CCN(c2nccc(Nc3ccccc3F)n2)CC1,active: 39.8 µM
6,CNC(=O)[C@@H]1C[C@H](Oc2ccccc2)CN1C(=O)Cn1nc(C)cc1C,inactive
7,O=C(c1c(F)cccc1F)N1CCC2(CC1)N=C(c1ccc(Cl)cc1)NO2,inactive
8,O=C(c1cocn1)N1CCNc2cnc(Nc3cccc(C(F)(F)F)c3)nc2C1,"inconclusive: 79.4 µM [inhibitor, partial curve]"
9,Cc1nc(-c2cccc(Cl)c2)n(CC(=O)NCCCc2ccccc2)c(=O)c1CCO,"inconclusive: 44.7 µM [inhibitor, partial curve, poor fit]"
10,Fc1ccccc1CC1CCN(CC2[C@H]3CNC[C@@H]23)CC1 (some centres undefined),active: 35.5 µM
11,COC[C@@H]1CN(C(=O)Cn2cccn2)C[C@H]1c1ccncc1,inactive
12,Cc1cc(=O)n(CC(=O)Nc2ccc3c(c2)OCO3)c(-c2ccc(Cl)cc2)n1,"inconclusive: 79.4 µM [inhibitor, partial curve, poor fit]"
13,O=C1CC2(CCN(Cc3cccc4ccccc34)CC2)Oc2ccccc2N1,"inconclusive: 44.7 µM [inhibitor, partial curve, poor fit]"
14,CC(C)Cc1nc(NC(=O)CC[C@H]2NC(=O)c3ccccc3NC2=O)n[nH]1,inactive
15,Cc1ccc([S+](=O)([O-])NC2CCN(Cc3cccc(-c4cccs4)c3)CC2)cc1,active: 11.2 µM
16,COC(=O)[C@@H]1Cc2ncn(Cc3ccc(Cl)cc3)c2CN1Cc1ccc(CO)o1,"inconclusive: 89.1 µM [inhibitor, partial curve]"
17,CO[C@@H]1CO[C@H]2[C@@H]1OC[C@@H]2NS(C)(=O)=O,inactive
18,COc1cccc(CC(=O)N2CCCn3nc(C)c(-c4ccccc4Oc4ccccc4)c32)c1,"inconclusive: 56.2 µM [inhibitor, partial curve, poor fit]"
19,CCc1ccccc1NC(=O)N1CC(C(=O)N(C)C)C2(CCOCC2)C1 (centres undefined),inactive
20,CC(=O)Nc1ccc(C(=O)NC2CCN(c3cc(-c4ccc(Cl)cc4)[nH]n3)CC2)cc1,active: 22.4 µM
21,COc1cccc(CN2CCC3(CC2)COc2ccccc2NC3=O)c1,inactive
22,O=C(NCc1ccc(F)cc1)c1cc(C2CC2)nc2onc(C3CCNCC3)c12,"inconclusive: 50.1 µM [inhibitor, partial curve, poor fit]"
